The values that follow come from PMC4336329 (PLoS ONE, 2015).

The structures appear in SMILES notation. The whole screen tested about 310,000 compounds, of which about 2,200 (0.71%) showed an effect of 50% or more. Effects have a minus sign here. Some of the results follow.

For the test, the target named is human ether-à-go-go-related gene (hERG) potassium channel (human, UniProt Q12809). The test is described as follows: primary screen, population patch clamp on CHO cells stably expressing hERG.
Sequence of human ether-à-go-go-related gene (hERG) potassium channel (Q12809 whole entry, looked up): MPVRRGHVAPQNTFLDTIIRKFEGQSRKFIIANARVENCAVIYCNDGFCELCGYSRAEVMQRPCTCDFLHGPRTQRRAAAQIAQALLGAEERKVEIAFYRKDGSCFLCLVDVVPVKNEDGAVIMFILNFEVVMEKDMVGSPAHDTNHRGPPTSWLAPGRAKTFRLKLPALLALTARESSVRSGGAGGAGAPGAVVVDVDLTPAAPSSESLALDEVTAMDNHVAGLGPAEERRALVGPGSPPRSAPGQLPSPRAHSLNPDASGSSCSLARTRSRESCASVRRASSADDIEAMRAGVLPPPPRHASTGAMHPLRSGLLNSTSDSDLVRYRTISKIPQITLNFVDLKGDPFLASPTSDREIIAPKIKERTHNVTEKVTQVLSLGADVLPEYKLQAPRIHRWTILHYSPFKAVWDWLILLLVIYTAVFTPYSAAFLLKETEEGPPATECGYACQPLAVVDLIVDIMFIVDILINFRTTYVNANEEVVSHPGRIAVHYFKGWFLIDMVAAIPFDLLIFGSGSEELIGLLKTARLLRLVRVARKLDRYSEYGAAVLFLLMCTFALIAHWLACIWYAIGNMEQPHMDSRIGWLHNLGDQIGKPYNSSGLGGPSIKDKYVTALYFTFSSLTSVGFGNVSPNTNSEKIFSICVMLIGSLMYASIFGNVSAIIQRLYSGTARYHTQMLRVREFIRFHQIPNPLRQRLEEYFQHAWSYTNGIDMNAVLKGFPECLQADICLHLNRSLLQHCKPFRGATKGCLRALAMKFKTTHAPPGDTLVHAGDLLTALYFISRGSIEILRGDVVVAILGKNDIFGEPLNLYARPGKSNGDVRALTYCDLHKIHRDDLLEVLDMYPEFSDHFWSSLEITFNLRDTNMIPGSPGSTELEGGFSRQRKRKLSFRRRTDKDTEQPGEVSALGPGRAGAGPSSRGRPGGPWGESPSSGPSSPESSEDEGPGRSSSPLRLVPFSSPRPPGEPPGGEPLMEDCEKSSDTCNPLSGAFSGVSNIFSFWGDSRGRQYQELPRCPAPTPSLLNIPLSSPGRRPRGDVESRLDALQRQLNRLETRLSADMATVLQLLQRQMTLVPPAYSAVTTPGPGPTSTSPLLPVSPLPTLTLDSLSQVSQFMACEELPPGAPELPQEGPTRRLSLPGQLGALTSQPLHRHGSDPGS
With `CC(C)c1ccc(NC(=O)C2CC2c2ccccc2)cc1` (centres unmarked), the “hERG current change (%, negative = inhibition) at 1uM” value turned out to be 15.5%. For the compound `Cc1ccc(-n2c(C)cc(/C=N/NC(=O)c3ccncc3)c2C)cc1`, the “hERG current change (%, negative = inhibition) at 1uM” value came out at 5.82%. Then `NC(=O)c1ccc(NC(=O)CCCNC(=O)c2ccc(Cl)cc2)cc1`, with 16.6%.

With `COc1cccc(OC)c1CNC(=O)C1CCC(=O)N(CC2CCCCC2)C1` (centres unmarked), the “hERG current change (%, negative = inhibition) at 1uM” value amounted to 7.23%. Regarding `CCOc1ccc(CCNC(=O)c2cccc(S(=O)(=O)N3CCN(C(C)=O)CC3)c2)cc1OCC`, the “hERG current change (%, negative = inhibition) at 1uM” value was -6.2%. `Cc1cc(C)cc(NC(=O)OCCN2CCN(Cc3ccccc3)CCC2=O)c1`: the “hERG current change (%, negative = inhibition) at 1uM” value stood at 2.55%.

On to `Cl.Clc1cccc2c3c([nH]c12)CCNC3`, for which the “hERG current change (%, negative = inhibition) at 1uM” value is listed as 15%.

Consider `COc1cccc(NC(=O)C2CCN(S(=O)(=O)c3ccccc3)CC2)c1`, for which the “hERG current change (%, negative = inhibition) at 1uM” value is 8.41%.

`CCCCn1c(N)c(N(CC(C)C)C(=O)c2ccc([N+](=O)[O-])o2)c(=O)[nH]c1=O`: the “hERG current change (%, negative = inhibition) at 1uM” value turned out to be 6.81%. For the compound `CNC(=O)c1sccc1SCc1ccc(Cl)cc1Cl`, the “hERG current change (%, negative = inhibition) at 1uM” value amounted to 3.67%. Then `CCN1CCCC1CNC(=O)CCc1nc(-c2ccc(C)cc2)no1` (centres unmarked), with 0.531%.

For `CCCc1ncc(C(=O)c2ccc(OC)cc2)n1C`, the “hERG current change (%, negative = inhibition) at 1uM” value came out at 10.8%. Regarding `Cc1cc(Cl)c2oc(C(=O)N(C)CCCCN3CCOCC3)c(C)c2c1`, the “hERG current change (%, negative = inhibition) at 1uM” value came to 1.07%. Then `O=C(c1ccco1)N1CCN(C(c2ccccc2Cl)c2nnnn2Cc2cccs2)CC1` (centres unmarked), with -16.3%. Regarding `CCOC(=O)c1cccc(NC(=O)Cn2cnc3c2c(=O)n(C)c(=O)n3C)c1`, the “hERG current change (%, negative = inhibition) at 1uM” value was -4.49%. For `CCCC(=O)Nc1ccc(Cl)c(NC(=O)c2cccc(OC)c2)c1`, the “hERG current change (%, negative = inhibition) at 1uM” value is given as -0.138%. In the case of `Cc1c(C(=O)OC/C(O)=C(\C#N)c2nc3ccccc3[nH]2)oc2ccccc12`, the “hERG current change (%, negative = inhibition) at 1uM” value was 7%.

For the compound `O=c1oc2c(CN3CCCCC3)c(O)ccc2c2c1CCCC2`, the “hERG current change (%, negative = inhibition) at 1uM” value is recorded as 5.8%. With `COc1ccc2cc(C(=O)N(C)Cc3ccccc3)[nH]c2c1`, the “hERG current change (%, negative = inhibition) at 1uM” value worked out at 15.7%. Turning to `Cc1cc(C)n(-c2nnc(C)n2/N=C/c2cc(Br)ccc2OCc2ccccc2)n1`, the “hERG current change (%, negative = inhibition) at 1uM” value is 9.55%. With `O=C(NCc1ccc(F)cc1)Nc1cccc([N+](=O)[O-])c1`, the “hERG current change (%, negative = inhibition) at 1uM” value turned out to be 0.529%. As to `C[n+]1cc[nH]c1SCC(=O)c1ccc(Cl)cc1.[Br-]`, the “hERG current change (%, negative = inhibition) at 1uM” value stood at 10.2%. Turning to `CN(C(=O)CSc1nnnn1-c1ccc(O)cc1)C1CCS(=O)(=O)C1` (centres unmarked), the “hERG current change (%, negative = inhibition) at 1uM” value was found to be 19.7%. For `CCCCNC(=O)N1CCN(c2ncccn2)CC1`, the “hERG current change (%, negative = inhibition) at 1uM” value is reported as 8.42%. As to `Cc1ccc(-n2c(SCC(=O)N/N=C/c3c(C)nn(-c4ccccc4)c3C)nc3ccccc3c2=O)cc1`, the “hERG current change (%, negative = inhibition) at 1uM” value came out at 0.705%. As for `COc1cccc(OCC(=O)Nc2cc(NC(=O)COc3cccc(OC)c3)cc(C(=O)O)c2)c1`, the “hERG current change (%, negative = inhibition) at 1uM” value is listed as 14.4%. Then `CCCNC(=O)NC(=O)COC(=O)/C=C/c1cc(Br)ccc1F`, with 1.61%; and `N=c1oc2cc(O)ccc2cc1C(=O)Nc1ccc(Cl)cc1`, with 19.6%; and `CCc1ccc(N2C(=O)NC(=O)/C(=C\c3cc(C)n(-c4cc(C(=O)O)cc(C(=O)O)c4)c3C)C2=O)cc1`, with 10.9%. As for `CCOc1ccc2nc(NC(NC(C)=O)(C(=O)OC)C(F)(F)F)sc2c1` (centres unmarked), the “hERG current change (%, negative = inhibition) at 1uM” value is reported as -0.806%. In the case of `Cc1ccsc1/C=C/c1ccc2cccc(O)c2n1`, the “hERG current change (%, negative = inhibition) at 1uM” value is given as 12.1%.

With `COC(=O)c1ccc(-n2c(C)cc(C(=O)CSc3ccc(NC(C)=O)cc3)c2C)cc1`, the “hERG current change (%, negative = inhibition) at 1uM” value is 12.5%.

For `CCC12CN3CCN(CC(C3)/C1=N\NC(=O)Nc1ccccc1)C2`, the “hERG current change (%, negative = inhibition) at 1uM” value is 9.58%. Next, `Cc1ccc2nc(SCC(=O)N3CCN(c4ccccc4)CC3)nc(=O)n2c1`: -12.4%; `CC(C)Cc1nn2c(=O)cc(CSCC(=O)Nc3ccccc3F)nc2s1`: 4.99%; `CCC(=O)Nc1nc(-c2ccccc2)nc(SC)c1C(C)=O`: 8.72%. Then `COc1ccc(S(=O)(=O)NCC2CCCN(Cc3ccc(C)o3)C2)cc1` (centres unmarked), with 5.15%. With `O=C(Nc1ccccc1)O/N=C/c1ccc(F)cc1`, the “hERG current change (%, negative = inhibition) at 1uM” value is 6.79%. For the compound `Cn1cc2cccc([N+](=O)[O-])c2n1`, the “hERG current change (%, negative = inhibition) at 1uM” value was determined as 7.83%. In the case of `O=C(NC1=NCCS1)C1CC(=O)N(c2ccccc2)C1` (centres unmarked), the “hERG current change (%, negative = inhibition) at 1uM” value came out at 4.6%. For `COc1ccc(S(=O)(=O)N2CCN(c3ncccn3)CC2)cc1[N+](=O)[O-]`, the “hERG current change (%, negative = inhibition) at 1uM” value is recorded as -0.738%. On to `COC(=O)C1=C(C)N(c2ccc(C)c(C)c2)/C(=C/c2cccs2)C1=O`, for which the “hERG current change (%, negative = inhibition) at 1uM” value is 2.06%.

Consider `Cc1cc(N2CCOCC2)n2cc(-c3ccccc3)nc2n1`, for which the “hERG current change (%, negative = inhibition) at 1uM” value is -14.6%. Turning to `COc1ccccc1C(=O)NCCC(=O)N1CCN(c2cccc(C(F)(F)F)c2)CC1`, the “hERG current change (%, negative = inhibition) at 1uM” value is recorded as 2.48%.
